In all, about 33,000 sequences were measured (“E-score (-0.5 to 0.5)”: median about -0.013, highest 2% from about 0.3 on). Some of the results follow.
What follows are sequences tested against T1, Msn1 (UniProt P22148) (assay: PBM E-score (8-mer binding enrichment) (E-score (-0.5 to 0.5)); higher = stronger / more preferred TF binding; most listed sequences are background and not binding sites). Settings: protein concentration: 200 nM; construct: GST-full length.
T1 sequence: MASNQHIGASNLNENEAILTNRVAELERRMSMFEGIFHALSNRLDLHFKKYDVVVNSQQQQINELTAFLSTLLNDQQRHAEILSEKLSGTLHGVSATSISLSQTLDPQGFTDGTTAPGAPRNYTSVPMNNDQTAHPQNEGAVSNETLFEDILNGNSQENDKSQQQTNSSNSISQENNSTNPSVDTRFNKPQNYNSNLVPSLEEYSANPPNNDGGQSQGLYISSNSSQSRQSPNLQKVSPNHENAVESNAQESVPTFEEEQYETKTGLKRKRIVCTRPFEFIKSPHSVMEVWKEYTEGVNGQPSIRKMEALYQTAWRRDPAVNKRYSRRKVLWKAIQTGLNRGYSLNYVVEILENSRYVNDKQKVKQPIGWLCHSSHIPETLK
Summary of the method: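 For each ungapped eight-base word taken together with its reverse complement, the Universal PBM Analysis Suite assigned an E-score. Binding data came from GST-tagged yeast transcription factors, applied at about 100-200 nM, on universal all-10-mer Agilent arrays made double-stranded by primer extension. Fluorescent anti-GST marked bound protein, and scans were normalised with masliner.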

Row | Sequence | PBM E-score
1 | CTAATCAA | 0.155
2 | CGTCTAAC | 0.0502
3 | ATGGGGTG | -0.12
4 | GGTTACGA | -0.217
5 | AGGTCGAA | -0.0147
6 | GGTCCCAC | -0.176
7 | GGGTGGCA | -0.108
8 | CGACCCGA | -0.046
9 | AAGAATGT | 0.268
10 | CCAGGCGG | -0.0927
11 | AGACGCGC | 0.0536
12 | CCATAAAC | -0.0335
13 | GTAAGCGA | -0.0511
14 | CGAGCTCA | -0.0163
15 | CAGGTAAG | -0.013
16 | AGGCGGTA | -0.0886
17 | AATAGCGT | 0.076
18 | GAATGACA | 0.34
19 | TCCGAGAA | 0.346
20 | CTGCAGGA | 0.194
21 | CATACACG | 0.254
22 | GAGTGACC | 0.0114

Row | Sequence | PBM E-score
23 | GGCAATTA | -0.149
24 | ACAGTAAA | -0.00785
25 | AAGGGCAG | -0.102
26 | CGACTTAC | -0.00648
27 | GGATTGGA | 0.0131
28 | CATATAGC | 0.0969
29 | CGCCACCA | -0.333
30 | ATGGTTAC | 0.00793
31 | GCGTAACC | -0.0548
32 | ACGAGTGC | -0.0619
33 | ACTAAACC | 0.0221
34 | CCCACCTA | -0.135
35 | ATCGGCTA | -0.0302
36 | TATAACGA | -0.0116
37 | CAGAATCC | 0.102
38 | CCGTTGAA | 0.00808
39 | TCTGGTAA | 0.177
40 | GAGAGGCA | -0.188
41 | AGGCACCG | -0.156
42 | CCACACCA | 0.075
43 | CGTGGCAA | -0.135
44 | TCATTTAA | 0.132

Row | Sequence | PBM E-score
45 | CGATAGTC | 0.198
46 | AGAACTCT | -0.119
47 | GTACCGAC | 0.0868
48 | GTCGCCAC | -0.173
49 | AAGTAAAC | -0.0142
50 | ATGGATAC | -0.108
51 | AAACAAAG | 0.0504
52 | AATCGCAA | 0.0437
53 | AGTACGGG | -0.0729
54 | TAAGCTAA | 0.238
55 | CTTTCGGC | 0.0124
56 | CCTTCGTA | -0.16
57 | CACATCTG | -0.154
58 | ATACCGGC | 0.0363
59 | CTGTTTAA | 0.0247
60 | AGCAGGCG | 0.0269
61 | CGGGCCGC | -0.0688
62 | GACGTTGA | -0.0706
63 | GCACAGGC | -0.114
64 | CAGACGGC | -0.207
65 | TACAAAAA | 0.264
66 | AACATTAG | -0.0152

Row | Sequence | PBM E-score
67 | CGTCACAC | -0.0547
68 | CCCTCCAC | -0.092
69 | CAGCAGGG | -0.274
70 | CGTGACTC | -0.0728
71 | ATCAAAAA | 0.214
72 | GATATCCA | 0.0655
73 | ATAAGACG | -0.105
74 | ACCGCGCG | 0.114
75 | TATCCTGA | 0.0592
76 | ACAACTGG | 0.0262
77 | TTCTAGAA | 0.00769
78 | ACGGGTCC | 0.0102
79 | ATTACCAG | -0.0811
80 | ACATCTCA | 0.115
81 | GAAATACA | -0.0197
82 | GTGGTCAA | -0.188
83 | CGAGATAC | 0.182
84 | CTCTGGGA | -0.112
85 | AGTGGGCA | -0.00096
86 | AGTCCACC | 0.0587

Reference: the supplement of paper PMC3334620
